{
  "source": "PubChem BioAssay AID504832",
  "about": "(National Center for Advancing Translational Sciences (NCATS), 2011)",
  "note": "Where “and” joins values, the source holds several entries; their conditions need not be identical. Identical values can stand only once. Screen size: about 310,000 compounds; about 18,000 (5.8%) were called active. The shares of active, inactive and inconclusive entries below differ from those in the screen. Calls follow the shape of the dose curve; as a rule, active = well fitted inhibition curve with a large enough effect; inconclusive = small, poorly fitted or top-dose-only effect, or another doubt; inactive = no such curve, though single readings can be large or run the other way. Potencies of inconclusive entries are left out as doubtful fits. % is scaled to controls: 0 for no effect and ±100 for the full control effect; potency is read from the fitted curve at half-maximal effect; tags tell the direction and shape of the fitted curve.",
  "data": [
    {"assay": "Primary qHTS for delayed death inhibitors of the malarial parasite plastid, 48 hour incubation", "details": "P. falciparum luciferase growth in erythrocytes; series mostly up to 28.7 µM; activity change, negative = inhibition: at the top concentration", "outline": "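Firefly luciferase activity from engineered P. falciparum reports growth; inhibitors lower the luminescent signal. Cultures contained 2% hematocrit erythrocytes at 0.1% final parasitemia.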", "values": [
      {"smiles": "Cc1cc2ncn(/N=C/c3ccc4c(c3)OCO4)c2cc1C", "Potency": "inconclusive [inhibitor, single point]"},
      {"smiles": "C#CC(CC)(CC)NC(=O)Nc1ccccc1C(=O)OC", "Potency": "inconclusive [inhibitor, partial curve, poor fit]"},
      {"smiles": "Cc1cccc(C(=O)Nc2ccc(C(=O)N/N=C/c3ccc4c(c3)OCO4)cc2)c1", "Potency": "inconclusive [inhibitor, single point]"},
      {"smiles": "COc1ccc(NC(=O)COC(=O)Cn2c(C)nc3ccccc32)cc1OC", "activity change, negative = inhibition": "inactive: 9.03%"},
      {"smiles": "CCCCNC(=O)c1cc2cc(CC)ccc2[nH]1", "Potency": "inconclusive [inhibitor, single point]"},
      {"smiles": "COc1nc(N)c(S(=O)(=O)c2ccccc2)cc1C#N", "Potency": "inconclusive [inhibitor, partial curve, poor fit]"},
      {"smiles": "CCOc1ccc(C(C)=O)cc1COC(=O)CN1C(=O)NC2(CCCC2)C1=O", "Potency": "active: 13.1 µM"},
      {"smiles": "COc1ccc2c(c1)N(C)C(=O)CC(c1ccccc1)=N2", "activity change, negative = inhibition": "inactive: 12.6%"},
      {"smiles": "CC(C)(C)CC(C)(C)c1ccc(OCCOCC[N+](C)(C)Cc2ccccc2)cc1", "Potency": "active: 2.39 µM and active: 928 nM"},
      {"smiles": "Cc1cc(NNC(=O)c2ccccc2)nc(NNC(=O)c2ccccc2)n1", "Potency": "inconclusive [inhibitor, partial curve, poor fit]"},
      {"smiles": "O=C(NCc1ccccc1)c1nc[nH]c1C(=O)N1CCc2ccccc2C1", "Potency": "inconclusive [inhibitor, single point]"},
      {"smiles": "O=C(O)C[C@@H]1C(=O)O[C@@H]2C(COC(=O)c3cc(O)c(O)c(O)c3)O[C@@H](OC(=O)c3cc(O)c(O)c(O)c3)[C@@H](OC(=O)c3cc(O)c(O)c4c3[C@H]1[C@H](O)C(=O)O4)[C@H]2OC(=O)c1cc(O)c(O)c(O)c1", "note": "(stereo partly specified)", "Potency": "active: 3.29 µM"},
      {"smiles": "O=C(Nc1ccc(N2CCCCC2)cc1)c1cc([N+](=O)[O-])cc([N+](=O)[O-])c1", "activity change, negative = inhibition": "inactive: 26%"},
      {"smiles": "COc1ccccc1-c1cc(C(F)(F)F)n2ncc(S(=O)(=O)c3ccccc3)c2n1", "Potency": "inconclusive [inhibitor, full curve]"},
      {"smiles": "CN(Cc1ccco1)Cc1ccc(O)c2ncccc12", "Potency": "inconclusive [inhibitor, partial curve]"},
      {"smiles": "CN(CC(=O)Nc1ccc(F)c(F)c1F)C(=O)c1ccc2c(c1)S(=O)(=O)N=C1CCCCCN12", "Potency": "inconclusive [inhibitor, single point]"},
      {"smiles": "Cc1nccc(-c2cccc(NC(=O)Nc3ccc(Cl)cc3)c2)n1", "Potency": "inconclusive [inhibitor, single point]"},
      {"smiles": "CCn1c(=O)c2cc(C(=O)Nc3ccc(OC)cc3OC)sc2c2ccccc21", "Potency": "inconclusive [inhibitor, single point]"},
      {"smiles": "CC1Sc2ccc(S(=O)(=O)N(C)Cc3ccccc3)cc2NC1=O", "note": "(stereo unspecified)", "activity change, negative = inhibition": "inactive: -1.61%"},
      {"smiles": "O=C(Nc1ccc(N2CCOCC2)c(S(=O)(=O)Nc2ccc(Cl)cc2)c1)c1cnccn1", "Potency": "inconclusive [inhibitor, single point]"},
      {"smiles": "COc1ccc(-c2nnc3ccc(SCC(=O)N4CCOCC4)nn23)cc1", "activity change, negative = inhibition": "inactive: 24%"},
      {"smiles": "CCOc1ccccc1N1CCN(CC(O)COC2CCCc3ccccc32)CC1", "note": "(stereo unspecified)", "Potency": "inconclusive [inhibitor, single point]"},
      {"smiles": "CCCOc1cccc(-c2cc(-c3n[nH]c(=S)n3CC)c3ccccc3n2)c1", "Potency": "active: 10.4 µM"},
      {"smiles": "CC#CCN(CC#CC)S(=O)(=O)c1ccc(-n2cnnn2)c(OC)c1", "Potency": "inconclusive [inhibitor, single point]"},
      {"smiles": "Cc1ccc(S(=O)(=O)N2[C@@H](c3ccccc3)C(C(=O)O)=CC[C@H]2c2cccc(C)c2)cc1", "Potency": "inconclusive [inhibitor, single point]"},
      {"smiles": "CCC1(C)Cc2c(C#N)c(N)n(N)c(=S)c2CO1", "note": "(stereo unspecified)", "Potency": "inconclusive [inhibitor, partial curve]"},
      {"smiles": "N/C(Cc1ccc(Cl)c(Cl)c1)=N\\OC(=O)c1cccs1", "Potency": "inconclusive [inhibitor, partial curve, poor fit]"},
      {"smiles": "COC(=O)c1ccc(Oc2nc(N3CCCCC3)nc(N3CCOCC3)n2)cc1", "Potency": "inconclusive [inhibitor, single point]"},
      {"smiles": "CCOc1ccc(S(=O)(=O)NCc2ccc3c(c2)OCO3)cc1", "Potency": "inconclusive [inhibitor, full curve, poor fit]"},
      {"smiles": "O=S(=O)(N/N=C\\C=C\\c1ccccc1)c1ccc(Br)cc1", "Potency": "inconclusive [inhibitor, partial curve, poor fit]"},
      {"smiles": "CN(C)c1cccc(C(=O)N(Cc2ccccc2)Cc2ccccc2)c1", "activity change, negative = inhibition": "inactive: -11.8%"},
      {"smiles": "Cn1c(=O)c2c(ncn2CC(COCc2ccc(Cl)cc2)OCc2ccc(Cl)cc2)n(C)c1=O", "note": "(stereo unspecified)", "Potency": "inconclusive [inhibitor, partial curve]"},
      {"smiles": "Cc1noc(C)c1C(=O)Nc1ccccc1N1CCCC1", "Potency": "inconclusive [inhibitor, single point]"},
      {"smiles": "COc1ccccc1N(C)S(=O)(=O)c1ccc(C(=O)N2CCCc3ccccc32)cc1", "Potency": "active: 13.1 µM"},
      {"smiles": "COC(=O)C(C)Oc1cc(OC(C)C(=O)OC)c2c(-c3ccccc3)cc(=O)oc2c1", "note": "(stereo unspecified)", "Potency": "inconclusive [inhibitor, partial curve, poor fit]"},
      {"smiles": "COCCCn1c(SCc2ccccc2)nc2cc(OC)c(OC)cc2c1=N", "Potency": "active: 13.1 µM"},
      {"smiles": "COc1ccc(S(=O)(=O)NCc2c(-c3ccccc3)noc2C)c(OC)c1", "Potency": "inconclusive [inhibitor, partial curve, poor fit]"},
      {"smiles": "CN(C)c1ccc(/C=N/NC(=O)c2sccc2-n2cccc2)cc1", "Potency": "inconclusive [inhibitor, full curve, poor fit]"},
      {"smiles": "Cc1cc(C)nc(SCCC(=O)Nc2ccc(F)cc2)n1", "Potency": "inconclusive [inhibitor, single point]"},
      {"smiles": "CCS(=O)(=O)Nc1cc2c3c(c1)CCC(=O)N3CCC2", "activity change, negative = inhibition": "inactive: -14.5%"},
      {"smiles": "CCOc1ccc(CCNC(=O)C2CC(=O)N(c3ccccc3OCC)C2)cc1OCC", "note": "(stereo unspecified)", "Potency": "inconclusive [inhibitor, partial curve, poor fit]"},
      {"smiles": "O=C(Nc1cccc(C(F)(F)F)c1)c1cc[n+]([O-])cc1", "activity change, negative = inhibition": "inactive: 19.9%"},
      {"smiles": "CCOC(=O)Cn1c(=NC(=O)C(C)(C)C)sc2cc([N+](=O)[O-])ccc21", "Potency": "inconclusive [inhibitor, single point]"},
      {"smiles": "COc1ccc(/C=N/NC(=O)c2c(C)nc3ccccn23)cc1[N+](=O)[O-]", "Potency": "inconclusive [inhibitor, partial curve, poor fit]"},
      {"smiles": "COc1ccc(C(CNC(=O)COc2cccc(C(F)(F)F)c2)N2CCCC2)cc1", "note": "(stereo unspecified)", "Potency": "active: 10.4 µM"},
      {"smiles": "CCN(CC)c1ccc(/C=C/c2cc(-c3ccccc3)c3ccccc3n2)cc1", "Potency": "inconclusive [inhibitor, full curve]"},
      {"smiles": "COc1ccccc1-n1c(=O)c2c3c(sc2n2c(SC(C)C)nnc12)CCC3", "Potency": "inconclusive [inhibitor, single point]"},
      {"smiles": "CC(C)Cc1ccc(C(=O)NCc2ccc3c(c2)OCO3)o1", "Potency": "inconclusive [inhibitor, single point]"},
      {"smiles": "O=C1CN(c2nc(-c3ccccc3)c3ccccc3n2)c2ccccc2N1", "Potency": "inconclusive [inhibitor, single point]"},
      {"smiles": "N#CC1=C(N)Oc2n[nH]c(-c3ccccc3)c2C12C(=O)Nc1ccccc12", "note": "(stereo unspecified)", "activity change, negative = inhibition": "inactive: -11.7%"},
      {"smiles": "Cc1c(C(=O)Nc2nonc2-c2ccc(F)cc2)oc2ccc(F)cc12", "Potency": "inconclusive [inhibitor, single point]"},
      {"smiles": "Cc1cc(NC(=O)CSc2nc3sc4c(c3c(=O)n2C)CCCC4)no1", "activity change, negative = inhibition": "inactive: 8.33%"},
      {"smiles": "COc1ccc(CNC(=O)c2ccc[nH]2)cc1", "activity change, negative = inhibition": "inactive: 21.1%"},
      {"smiles": "O=C(CSc1nc2ccccc2c(=O)n1-c1ccccc1Cl)NC1CCS(=O)(=O)C1", "note": "(stereo unspecified)", "Potency": "inconclusive [inhibitor, partial curve, poor fit]"},
      {"smiles": "CC1C(=O)N(Cc2ccc([N+](=O)[O-])cc2)c2ccccc2N1C(=O)c1c(F)cccc1F", "note": "(stereo unspecified)", "Potency": "active: 9.28 µM"},
      {"smiles": "O=C(N/C(=C\\c1ccc([N+](=O)[O-])cc1)C(=O)N1CCOCC1)c1ccco1", "activity change, negative = inhibition": "inactive: 4.45%"},
      {"smiles": "Cc1onc(-c2c(F)cccc2Cl)c1C(=O)OCc1nnc(-c2ccccc2)o1", "Potency": "inconclusive [inhibitor, single point]"},
      {"smiles": "O=C(NCC1CCCO1)C1CC(c2ccc(Cl)c(Cl)c2)=NO1", "note": "(stereo unspecified)", "activity change, negative = inhibition": "inactive: 22.2%"},
      {"smiles": "NC(=O)c1ccc(NCc2ccco2)c([N+](=O)[O-])c1", "Potency": "inconclusive [inhibitor, full curve, poor fit]"},
      {"smiles": "Cc1ccc(/C=C2\\SC(=S)N(CCCC(=O)Nc3ccccn3)C2=O)cc1", "Potency": "inconclusive [inhibitor, single point]"},
      {"smiles": "O=C(Nc1ccccc1C(=O)NCc1ccco1)Nc1cccc2ccccc12", "Potency": "inconclusive [inhibitor, single point]"},
      {"smiles": "C=CCn1c(COc2ccccc2-c2ccccc2)nnc1SCC(=O)NC(=O)NCc1ccco1", "Potency": "inconclusive [inhibitor, single point]"},
      {"smiles": "Cc1cc2c(cc1C)C(c1cccc(F)c1)CC(=O)N2", "note": "(stereo unspecified)", "activity change, negative = inhibition": "inactive: -2.94%"},
      {"smiles": "CCOC(=O)c1cnc(SCCN2CCOCC2)nc1N", "activity change, negative = inhibition": "inactive: 59.4%"},
      {"smiles": "CCN(CC)CCn1c2c(c(SCC(=O)Nc3cccc4ccccc34)nc1=O)CCC2", "Potency": "inconclusive [inhibitor, single point]"},
      {"smiles": "CN(C)[C@@H]1C(=O)C(C(N)=O)=C(O)[C@@]2(O)C(=O)C3=C(O)c4c(O)cccc4[C@@](C)(O)C3C[C@@H]12", "note": "(stereo partly specified)", "Potency": "active: 7.38 µM"}
    ]}
  ]
}
